Source: PubChem BioAssay AID686979 (National Center for Advancing Translational Sciences (NCATS), 2013)
In all, about 420,000 compounds went through this assay and about 50,000 (12%) were called active. Inconclusive results, whose numbers are uncertain, are shown with a selection of clear calls. Calls come from the whole dose curve; as a rule, active = well fitted inhibition curve with a large enough effect; inconclusive = small, poorly fitted or top-dose-only effect; inactive = flat fitted curve, though single readings scatter. No potency is given beside an inconclusive call; the fits are too rough.

test: qHTS for Inhibitors of human tyrosyl-DNA phosphodiesterase 1 (TDP1): qHTS in cells in presence of CPT; conditions: chicken DT40 Tdp1-/-;hTDP1 cells + 20 nM CPT, ATP luminescence, 48 h; activity change, negative = growth inhibition: at 46.2 µM (top of the series) unless noted; note: nearly all actives have a fitted effect of over 55% in size
Procedure, shortened: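 Chicken DT40 Tdp1-/- cells stably complemented with human TDP1 were seeded at 400 cells/well in medium containing 20 nM camptothecin, exposed to pin-transferred compounds, and grown at 37 °C for at least 48 hr. Viability was read as ATP luminescence.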
% is set by controls: 0 for no effect and ±100 for the full control effect; potency is the fitted concentration of half-maximal effect; tags give direction and shape of the fitted curve.

SMILES | Potency | activity change, negative = growth inhibition
COc1ccccc1NC(=O)OCC#CCOC(=O)Nc1ccccc1OC | inconclusive [inhibitor, single point] | 
CCc1c(C)[nH]c2ccc(C)cc2c1=O | inconclusive [inhibitor, single point] | 
CN1CC(=O)N(CC(=O)NC2CCCCC2)C1=O |  | inactive: -3.3%
CN(c1ccccc1)S(=O)(=O)c1cccc(NC(=O)CSc2nnc(N)s2)c1 | active: 8.2 µM | 
COc1ccc(N(C(=O)c2cccc(C)c2)S(=O)(=O)c2ccc(C)cc2)cc1 | active: 18.4 µM | 
Cc1ccc(S(=O)(=O)N2CC3C(=O)C[C@@H](c4ccccc4Cl)N(S(=O)(=O)c4ccc(C)cc4)C3CC2c2ccccc2)cc1 (some centres undefined) |  | inconclusive: -25.2% [inhibitor]
CC(C)(C)n1nnnc1C(c1ccccc1)N1CCN(C/C=C/c2ccccc2)CC1 (centres undefined) | inconclusive [inhibitor, single point] | 
O=C(Nc1ccc(Cl)c(C(F)(F)F)c1)C1CCCN(S(=O)(=O)c2cnc[nH]2)C1 (centres undefined) | inconclusive [inhibitor, single point] | 
CCOc1ccccc1CNC(=O)c1ccc(NC(=O)N2CCSc3ncccc32)cc1 | active: 20.6 µM | 
COc1ccc(NC(=S)NCCN2CCC(C)CC2)cc1 | inconclusive [inhibitor, single point] | 
CC1CCN(C2CCN(C(=O)c3ccccc3F)CC2)CC1 |  | inactive: 12.5%
CN1CCN(C(=O)CCCN2C(=O)/C(=C/c3ccccc3)SC2=S)CC1 | active: 18.4 µM | 
CC(=O)NC(CCc1ccc(Cl)c(Cl)c1)c1cccc(O)c(=O)c1 (centres undefined) | active: 23.1 µM | 
COc1ccc(S(=O)(=O)N(C)C)cc1NC(=O)Cc1ccc(S(=O)(=O)N2CCOCC2)s1 | active: 13 µM | 
Cc1ccc(-c2nsc(SCC(=O)Nc3ccc4c(c3)OCO4)n2)cc1 | inconclusive [inhibitor, single point] | 
CC(=O)Nc1cc(O)cc(O)c1 |  | inactive: 1.36%
Cn1c(N)c(-c2nc3cccnc3n2C)sc1=S |  | inactive: -4.69%
CCc1nnc(NS(=O)(=O)c2ccc(NC(=S)NC(=O)/C=C/c3ccc(OC)cc3)cc2)s1 |  | inactive: -8.39%
O=C(Cn1c(=O)oc2ccccc21)Nc1nc(-c2ccc(Br)cc2)cs1 | inconclusive [inhibitor, partial curve, poor fit] | 
CCOC(=O)C1CCCN(C(=O)c2ccc(Cn3c(=S)[nH]c4cc(C(=O)OC)ccc4c3=O)cc2)C1 (centres undefined) | inconclusive [inhibitor, single point] | 
O=C1C(=C2CCc3ccccc32)Cc2ccccc21 | inconclusive [inhibitor, partial curve] | 
CC(=O)c1ccc(S(=O)(=O)N2CCNC(=O)C2)cc1 |  | inactive: 3.15%
CCOc1ccc(Cn2c(=O)sc3ccccc32)cc1OC | inconclusive [inhibitor, single point] | 
COc1ccc2c(Sc3ccccc3)c(C(=O)NCCCN3CCCCC3)[nH]c2c1 | inconclusive [inhibitor, single point] | 
COc1ccc(/C=C/C(=O)Nc2nc3n(n2)C(c2ccccc2)C=C(c2ccc(Cl)cc2)N3)cc1 (centres undefined) | inconclusive [inhibitor, partial curve] | 

SMILES | Potency | activity change, negative = growth inhibition
Cc1nc(Cl)c(C(=O)NC(C)(C)C)c(C)c1Cl |  | inactive: 0.342%
Cc1ccc(S(=O)(=O)Nc2ccccc2C(C(=O)OC(C)(C)C)C(=O)OC(C)(C)C)cc1 | inconclusive [inhibitor, single point] | 
CC(OC(=O)CN1C(=O)c2ccccc2C1=O)C(=O)N(C)c1ccccc1 (centres undefined) |  | inactive: -1.49%
CN(C)c1ccc(N=Cc2ccco2)cc1 | active: 8.2 µM | 
O=C(CSc1ccc(-c2ccccc2)nn1)c1ccccc1 | inconclusive [inhibitor, single point] | 
O=C(Nc1ccc(F)cc1)C(c1cc2ccccc2o1)N1CCN(c2ccncc2)CC1 (centres undefined) | active: 20.6 µM | 
COc1ccc(/C=N/NC(=O)c2ccco2)cc1OCc1ccccc1 |  | inactive: -27.8%
Cc1ccccc1NC(=O)c1cccc(S(=O)(=O)Nc2cccc(C(=O)O)c2)c1 |  | inactive: -0.594%
COc1cc(C2Nc3ccc4ncccc4c3C3=C2C(=O)CCC3)cc(OC)c1OC (centres undefined) | inconclusive [inhibitor, single point] | 
CCc1ccccc1NC(=O)Nc1nnc(N(C)Cc2ccccc2)s1 | inconclusive [inhibitor, single point] | 
Oc1ccc2ccccc2c1CNc1ccccc1 | inconclusive [inhibitor, partial curve] | 
O=C(NC1CCCCC1)c1cc([N+](=O)[O-])ccc1N1CCCCC1 |  | inactive: -11.6%
Cc1ccc(C)c(Cn2c(=O)n(CCC(=O)NCc3ccco3)c(=O)c3ccccc32)c1 |  | inactive: 17.2%
Cc1ccsc1/C=N/Nc1nc(=O)[nH]nc1C | active: 20.6 µM | 
COc1ccc(NC(=O)c2cc(S(=O)(=O)N3CCCCCC3)cn2C)cc1Cl | inconclusive [inhibitor, single point] | 
CC(=O)N(C)c1ccc(N=Nc2ccc3ncccc3c2)cc1 | inconclusive [inhibitor, partial curve, poor fit] | 
COc1ccccc1NC(=S)N(CCN1CCCCCC1)Cc1cccs1 | inconclusive [inhibitor, single point] | 
CCOC(=O)C1CCN(Cc2cc(=O)oc3c(C)c(C)ccc23)CC1 | inconclusive [inhibitor, single point] | 
COc1cc2nc(N3CCN(C)CC3)nc(NC3CCN(Cc4ccccc4)CC3)c2cc1OC | active: 11.2 µM | 
Cc1noc(C)c1-c1nc(NCc2ccccc2)c2ccccc2n1 | inconclusive [inhibitor, single point] | 
CCCc1nc2cc(C)c(Br)c(C)n2c1Cc1ccccc1OC | active: 25.9 µM | 
OC(c1cc(C(F)(F)F)nc2c(Cl)cc(Cl)cc12)C1CCCCN1 (centres undefined) | active: 18.4 µM | 
CCOC(=O)N1CCN(CC(O)c2ccccc2)CC1 (centres undefined) |  | inactive: -8.75%
CCN(CC)CCN(C(=O)c1cc2c(ccc3ccccc32)oc1=O)c1nc2cc3c(cc2s1)OCCO3 | active: 18.4 µM | 
